# According to paper PMC4336329 (PLoS ONE, 2015):
# Hit rate of the full screen: of about 310,000 compounds, about 2,200 (0.71%) showed an effect of 50% or more. Effects have a minus sign here. Some of the results follow.
# Molecular target: human ether-à-go-go-related gene (hERG) potassium channel (human, UniProt Q12809)
# Test: primary screen, population patch clamp on CHO cells stably expressing hERG
# human ether-à-go-go-related gene (hERG) potassium channel, sequence (Q12809 whole entry, looked up): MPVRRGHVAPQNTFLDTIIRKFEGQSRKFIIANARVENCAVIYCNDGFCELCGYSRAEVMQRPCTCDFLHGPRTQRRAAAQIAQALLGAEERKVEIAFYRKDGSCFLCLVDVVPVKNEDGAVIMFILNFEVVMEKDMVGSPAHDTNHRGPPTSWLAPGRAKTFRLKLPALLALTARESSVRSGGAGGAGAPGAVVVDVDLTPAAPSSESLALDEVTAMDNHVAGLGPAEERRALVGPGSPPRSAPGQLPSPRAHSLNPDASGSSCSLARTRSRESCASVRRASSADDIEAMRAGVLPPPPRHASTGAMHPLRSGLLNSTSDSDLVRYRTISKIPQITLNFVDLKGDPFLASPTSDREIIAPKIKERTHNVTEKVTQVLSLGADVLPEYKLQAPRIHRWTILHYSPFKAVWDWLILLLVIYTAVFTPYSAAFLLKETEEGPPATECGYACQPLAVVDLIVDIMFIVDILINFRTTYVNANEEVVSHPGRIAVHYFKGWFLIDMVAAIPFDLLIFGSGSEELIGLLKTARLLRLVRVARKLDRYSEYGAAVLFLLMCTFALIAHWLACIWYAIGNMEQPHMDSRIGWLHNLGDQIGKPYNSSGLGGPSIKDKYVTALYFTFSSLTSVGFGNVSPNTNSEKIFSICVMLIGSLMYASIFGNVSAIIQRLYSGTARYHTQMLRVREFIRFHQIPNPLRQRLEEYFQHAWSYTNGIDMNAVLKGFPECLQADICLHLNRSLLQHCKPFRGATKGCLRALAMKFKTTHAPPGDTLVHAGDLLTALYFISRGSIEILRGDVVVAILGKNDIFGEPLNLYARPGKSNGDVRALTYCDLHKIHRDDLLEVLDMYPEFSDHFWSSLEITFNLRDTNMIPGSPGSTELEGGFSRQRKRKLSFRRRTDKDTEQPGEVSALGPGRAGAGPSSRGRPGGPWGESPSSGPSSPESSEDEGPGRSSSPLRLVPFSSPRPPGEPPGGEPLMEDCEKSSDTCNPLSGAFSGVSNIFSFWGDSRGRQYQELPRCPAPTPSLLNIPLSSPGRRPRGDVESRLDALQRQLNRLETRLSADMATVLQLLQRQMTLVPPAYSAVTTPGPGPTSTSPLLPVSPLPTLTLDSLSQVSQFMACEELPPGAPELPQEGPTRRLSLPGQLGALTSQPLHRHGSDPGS
row,SMILES,"hERG current change (%, negative = inhibition) at 1uM [%]"
1,O=C(COC(=O)c1ccc(S(=O)(=O)C(F)F)cc1)Nc1cccnc1Cl,15.1
2,CCn1c(/N=C/c2ccccc2NS(=O)(=O)c2ccc(C)cc2)nc2ccccc21,-1.47
3,COc1cccc(-c2nnc(SCC(=O)NCc3ccc4c(c3)OCO4)n2Cc2ccco2)c1,-15.2
4,CCn1c2ccccc2c2cc(NC(=O)c3cc(OC)c(OC)c(OC)c3)ccc21,11.8
5,CC(=O)Nc1cccc(NC(=O)c2ccc3[nH]c(C)c(C)c3c2)c1,18.3
6,O=C(Cc1cccc2ccccc12)N1CCCc2ccccc21,4.44
7,COc1ccc(/C=C/C(O)=C2/C(=O)N(C)C3(C)CC2c2ccccc2O3)cc1 (centres unmarked),-5.55
8,Cc1cc(C)n(CC(=O)N/N=C/c2cc([N+](=O)[O-])ccc2O)n1,0.701
9,Cc1ccc(OCCNC(=O)c2cc(C(=O)NCCOc3ccc(C)cc3)cc([N+](=O)[O-])c2)cc1,-3.4
10,O=C1c2ccccc2C(=O)N1CCSC(=S)N1CCOCC1,2.19
11,COc1cc(SC)ccc1C(=O)Nc1ccc(Cl)cn1,22.2
12,NS(=O)(=O)c1ccc(NC(=O)c2ccc3c(c2)CCCC3)cc1,23.1
13,CCOC(=O)CN1CC23C=CC(O2)C(C(=O)NCc2ccc(C)cc2)C3C1=O (centres unmarked),6.13
14,O=C(CCC1CC(=O)Nc2ccccc21)NCc1ccccc1 (centres unmarked),-4.5
15,Cc1c(C(=O)Nc2ccccc2)csc1-c1ccccc1,16.5
16,CCOc1ccc(CCNC(=O)CS(=O)(=O)Cc2nc(-c3ccccc3F)oc2C)cc1,8.2
17,CCOC(=O)N=S(=O)(Oc1ccc([N+](=O)[O-])cc1)c1ccc(Cl)cc1 (centres unmarked),12.2
18,O=C(NNc1cccc(Cl)n1)c1ccc(Cl)nc1,10.3
19,Cc1nc(-c2ccc(Cl)cc2)sc1C1(C)CC(c2ccc(Br)cc2)=NO1 (centres unmarked),0.0445

row,SMILES,"hERG current change (%, negative = inhibition) at 1uM [%]"
1,Cc1c(Cl)cn2c(=O)cc(CN3CCN(c4ccccc4)CC3)nc2c1Cl,-1.3
2,COC(=O)C1=C(N)Oc2cc(N(C)C)ccc2C1c1ccccc1OC (centres unmarked),-84.1
3,CS(=O)(=O)N(CC(=O)NCCC1=CCCCC1)c1cccc([N+](=O)[O-])c1,1.86
4,N#C/C(=C/c1ccc(N2CCOCC2)o1)c1nc2ccccc2[nH]1,-1.21
5,O=C(c1ccc2c(=O)n(C3CCCC3)c(=S)[nH]c2c1)N1CCCCCC1,4.85
6,Cc1nc(NC(=O)COc2ccccc2)sc1C(=O)Nc1ccccc1,7.07
7,O=C(Nc1nnc(SCc2cccnc2)s1)C1CC(=O)N(c2ccccc2)C1 (centres unmarked),13.5
8,CCOc1c2ccc(C(=O)NCc3ccc(OC(F)(F)F)cc3)cc2nn1C,6.67
9,CC12CCC(=O)N1C(C(=O)N1CCN(c3cccc(Cl)c3)CC1)CS2 (centres unmarked),-1.7
10,CSc1ncc(CN2CCCC(C(=O)c3ccccc3SC)C2)cn1 (centres unmarked),-12.6
11,O=C(COC(=O)c1cccnc1Nc1ccccc1F)NCc1ccc2c(c1)OCO2,2.23
12,COCO/C=C(\NC(C)=O)c1ccccc1,12
13,Cc1cc(C)nc(SCc2cc(=O)c(OC(=O)c3ccco3)co2)n1,11.7
14,Cc1ccc(NC(=S)NCC2CCN(C(C)c3ccccc3)C2)cc1 (centres unmarked),1.58
15,O=C(N/N=C/c1c(F)cccc1Cl)c1ccc(Cn2cc(Br)cn2)o1,4.3
16,Cc1c(C)c2ccc(O)c(CN3CCCC3)c2oc1=O,17.8
17,O=S(=O)(Nc1ccc(Cl)c(Cl)c1)N1CCOCC1,7.48
18,CCOC(=O)C(C(=O)OCC)c1c([N+](=O)[O-])c(=O)n2c3c(cccc13)CCC2,12.9
19,O=C(NC1CCN(C(=O)c2ccccc2Br)CC1)c1ccccc1,17

row,SMILES,"hERG current change (%, negative = inhibition) at 1uM [%]"
1,N#CCc1ccc(NC(=O)CSc2nnc(C3CC3)n2C2CC2)cc1,23
2,O=C(NC(=S)Nc1ccc2oc(=O)ccc2c1)c1cccc(F)c1,17.5
3,Cc1ccc(Oc2ccc(N)cc2)cc1.Cl,7.92
4,CC(c1nc2ccccc2c(=O)[nH]1)N1CCN(C)CC1 (centres unmarked),0.394
5,COC(=O)COc1ccc(S(=O)(=O)N2CCCCC2)cc1[N+](=O)[O-],14.6
6,O=C(CSc1nnc2ccccn12)NNC(=O)c1ccc(Br)cc1,16.9
7,CCn1c(SCC(=O)Nc2ccc(S(=O)(=O)Nc3onc(C)c3C)cc2)nnc1-c1ccccc1,-8.31
8,Cc1ccc(-n2cccn2)c(CN2CCCC(C(=O)c3sccc3C)C2)c1 (centres unmarked),-82.8
9,CC(CN1CCCCC1)NC(=O)c1cccs1 (centres unmarked),9.63
10,CCN(CC)CCNC(=O)c1ccc(NC(=O)c2ccc(S(=O)(=O)N3CCCCCC3)cc2)cc1,13.3
11,O=C(N/N=C(\Cc1ncc[nH]1)c1ccccc1)c1ccncc1,6.55
12,CSc1ccc(/C=N/NC(=O)c2cccc(Cl)c2)cc1,0.0835
13,COc1ccc(C)cc1NC(=O)CCCN1C(=O)NC(C)(C)C1=O,5.46
14,O=C1CC(NS(=O)(=O)c2ccccc2)CN1c1ccc2c(c1)OCCO2 (centres unmarked),5.04
15,COc1ccc(C)cc1N(CC(=O)Nc1cccnc1)S(=O)(=O)c1ccc(C)cc1,10.3
16,CCCCCCCC(=O)OCC(O)CO (centres unmarked),9.65
17,CCN(CC)C(=S)SCC(=O)c1c(C)[nH]c2ccccc12,2.79
18,Cl.O=C(c1ccc(Cl)c(S(=O)(=O)N2CCCC2)c1)N1CCN(c2ccc(F)cc2)CC1,-4.95
